Reference: the supplement of paper PMC10441789
The list shows a part of the results. Antibody binding of pooled human sera (four to six donors per pool; dilution not stated) to peptides of the Trypanosoma cruzi antigen TSSA on microarrays. Quantile-normalised fluorescence in arbitrary units, mean of duplicate arrays; higher = more binding. No active / inactive call. The uninfected pools are read here as the healthy donors of the same country. The strongest signals lie near the top of the scale (about 60,000).

How the values were obtained:
Experiment in all cases: antibody binding signal (normalised fluorescence) (arbitrary fluorescence units); higher = stronger serum antibody binding to peptide
[1] = tested on: pooled sera of chronic Chagas disease patients, Argentina
Method: (§1)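 Microarray of 15-residue peptides over residues 30-55 of Trypanosoma cruzi TSSAII, each with 1 to 10 substitutions at naturally variable positions, probed with one serum pool per country.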

[2] = tested on: pooled sera of chronic Chagas disease patients, Bolivia
Method: as §1

[3] = tested on: pooled sera of chronic Chagas disease patients, Brazil
Method: as §1

[4] = tested on: pooled sera of chronic Chagas disease patients, Colombia
Method: as §1

[5] = tested on: pooled sera of chronic Chagas disease patients, Mexico
Method: as §1

[6] = tested on: pooled sera of chronic Chagas disease patients, USA
Method: as §1

[7] = tested on: pooled sera of uninfected people, Argentina
Method: as §1

[8] = tested on: pooled sera of uninfected people, Bolivia
Method: as §1

[9] = tested on: pooled sera of uninfected people, Brazil
Method: as §1

[10] = tested on: pooled sera of uninfected people, Colombia
Method: as §1

[11] = tested on: pooled sera of uninfected people, Mexico
Method: as §1

[12] = tested on: pooled sera of uninfected people, USA
Method: as §1

| Sequence | antibody binding signal [1] | antibody binding signal [2] | antibody binding signal [3] | antibody binding signal [4] | antibody binding signal [5] | antibody binding signal [6] | antibody binding signal [7] | antibody binding signal [8] | antibody binding signal [9] | antibody binding signal [10] | antibody binding signal [11] | antibody binding signal [12] |
| --- | --- | --- | --- | --- | --- | --- | --- | --- | --- | --- | --- | --- |
| SSTPPSGTENKTATG | 46300 | 47100 | 52100 | 391 | 3530 | 27800 | 2590 | 658 | 428 | 712 | 580 | 600 |
| NKAATGEAPSPPGAS | 12900 | 44200 | 39700 | 398 | 191 | 26800 | 528 | 981 | 302 | 661 | 213 | 1280 |
| GKDKKAAAGETPSPP | 316 | 190 | 282 | 690 | 841 | 1160 | 114 | 87.7 | 89.2 | 81.3 | 81.5 | 110 |
| GTDNKTAAGETPSPS | 252 | 309 | 29500 | 325 | 497 | 2250 | 176 | 613 | 1360 | 176 | 420 | 2220 |
| PSGKDNKAAAGETPS | 2400 | 654 | 5360 | 7030 | 5110 | 5150 | 324 | 422 | 191 | 209 | 122 | 130 |
| SGTENKAAAGETPSQ | 37200 | 8540 | 20200 | 478 | 503 | 5280 | 442 | 418 | 135 | 171 | 165 | 112 |
| GTDNKAAAGETPSPP | 245 | 163 | 31300 | 211 | 361 | 1130 | 146 | 649 | 1190 | 110 | 219 | 589 |
| TSSTPPSGKDKKPAT | 27800 | 979 | 4360 | 274 | 49300 | 889 | 272 | 141 | 125 | 207 | 112 | 132 |
| NKTATGETPSPSGAS | 406 | 1990 | 4200 | 221 | 500 | 7260 | 435 | 814 | 433 | 407 | 199 | 1560 |
| KEKKPAAGGAPSPSG | 196 | 185 | 174 | 1490 | 205 | 313 | 126 | 92.6 | 144 | 81 | 80.3 | 323 |
| TDKKPAAGETPSPPG | 347 | 189 | 9730 | 235 | 200 | 2840 | 91.1 | 348 | 285 | 166 | 142 | 819 |
| ISTPPSGTDNKTATG | 34900 | 50100 | 52200 | 1330 | 14800 | 20700 | 1120 | 685 | 1530 | 229 | 306 | 419 |
| TDNKAAAGETPSPSG | 259 | 267 | 6220 | 208 | 210 | 2060 | 124 | 321 | 153 | 102 | 298 | 2510 |
| TEKKAATGETPSPSG | 2270 | 2210 | 7960 | 324 | 443 | 11600 | 608 | 240 | 264 | 692 | 392 | 2510 |
| ENKPAAGEAPSPPGA | 1270 | 1610 | 33600 | 318 | 237 | 16500 | 163 | 209 | 169 | 113 | 92.4 | 171 |
| GKENKAATGETPSQP | 16400 | 6060 | 41900 | 16900 | 17400 | 23800 | 525 | 250 | 205 | 194 | 240 | 228 |
| TPPSGTEKKPAAGET | 35700 | 34800 | 42800 | 473 | 25300 | 6920 | 1050 | 725 | 1120 | 318 | 314 | 362 |
| KKAAAGGTPSQPGAS | 188 | 205 | 185 | 1850 | 196 | 1360 | 252 | 177 | 728 | 111 | 139 | 219 |
| GKDNKAATGETPSPS | 7180 | 1640 | 14600 | 6530 | 5750 | 12700 | 236 | 371 | 118 | 242 | 242 | 2450 |
| GTEKKTAAGEAPSQS | 1240 | 8630 | 2870 | 973 | 1120 | 7340 | 235 | 943 | 168 | 1260 | 147 | 105 |
| SGTENKAAAGGAPSQ | 40000 | 8640 | 17400 | 3770 | 1280 | 4410 | 468 | 333 | 205 | 320 | 168 | 213 |
| PPSGKEKKTATGGTP | 1440 | 518 | 1450 | 2740 | 3320 | 3390 | 323 | 263 | 112 | 186 | 104 | 128 |
| GKENKTATGEAPSPS | 17700 | 18800 | 22300 | 10700 | 10600 | 26200 | 492 | 202 | 165 | 192 | 259 | 138 |
| PSGKENKTAAGEAPS | 10500 | 3020 | 11700 | 12100 | 10400 | 12800 | 7240 | 3570 | 225 | 802 | 497 | 254 |
| ENKAATGGAPSQSGA | 603 | 1520 | 4500 | 868 | 592 | 3100 | 352 | 179 | 235 | 223 | 153 | 172 |

| Sequence | antibody binding signal [1] | antibody binding signal [2] | antibody binding signal [3] | antibody binding signal [4] | antibody binding signal [5] | antibody binding signal [6] | antibody binding signal [7] | antibody binding signal [8] | antibody binding signal [9] | antibody binding signal [10] | antibody binding signal [11] | antibody binding signal [12] |
| --- | --- | --- | --- | --- | --- | --- | --- | --- | --- | --- | --- | --- |
| GKDKKAAAGGTPSPP | 340 | 169 | 152 | 1950 | 518 | 1130 | 112 | 72.5 | 520 | 137 | 80.8 | 96.1 |
| KDNKAAAGGAPSPPG | 191 | 243 | 240 | 1480 | 166 | 613 | 472 | 2460 | 160 | 204 | 76.3 | 171 |
| TPPSGKENKTATGEA | 8050 | 10000 | 5760 | 388 | 1340 | 2300 | 735 | 870 | 365 |  | 198 | 136 |
| GTDNKTAAGETPSQP | 256 | 3790 | 35100 | 246 | 314 | 667 | 124 | 678 | 1260 | 168 | 205 | 119 |
| KENKTAAGETPSPPG | 195 | 260 | 618 | 1030 | 258 | 2160 | 202 | 208 | 160 | 123 | 233 | 983 |
| TEKKPATGEAPSQSG | 50900 | 45400 | 49800 | 329 | 416 | 45700 | 1000 | 620 | 417 |  | 305 | 587 |
| KKTATGGAPSQPGAS | 934 | 259 | 383 | 994 | 350 | 311 | 322 | 138 | 110 | 88.9 | 129 | 235 |
| KKTATGGAPSPPGAS | 580 | 275 | 309 | 1760 | 243 | 564 | 394 | 247 | 96.9 | 167 | 175 | 361 |
| KTATGGTPSPSGASS | 442 | 297 | 795 | 360 | 1990 | 316 | 347 | 112 | 160 |  | 91.9 | 259 |
| GTDKKAAAGGAPSPS | 201 | 209 | 226 | 4510 | 494 | 643 | 141 | 171 | 183 | 133 | 132 | 152 |
| GTEKKTATGGAPSQP | 2140 | 299 | 1600 | 2530 | 1390 | 1270 | 361 | 634 | 139 | 109 | 232 | 151 |
| GTDKKAAAGETPSPP | 739 | 442 | 2330 | 4420 | 1000 | 2000 | 149 | 356 | 125 | 244 | 397 | 475 |
| GTDNKTATGETPSQS | 691 | 1380 | 32100 | 238 | 192 | 7530 | 100 | 597 | 1310 | 124 | 120 | 138 |
| KDNKPATGEAPSPSG | 46600 | 35000 | 47700 | 243 | 200 | 43700 | 985 | 908 | 256 | 293 | 298 | 136 |
| TEKKTATGGAPSPSG | 2650 | 407 | 5450 | 4460 | 2160 | 2220 | 388 | 893 | 183 | 144 | 388 | 221 |
| KDKKAAAGEAPSPSG | 161 | 268 | 281 | 215 | 207 | 6170 | 126 | 104 | 78.7 | 103 | 91.4 | 98.9 |
| TSSTPPSGKEKKTAT | 11800 | 178 | 261 | 371 | 16100 | 683 | 304 | 260 | 103 | 222 | 102 | 121 |
| SGTDNKPATGETPSQ | 35500 | 33000 | 41600 | 1310 | 343 | 29900 | 296 | 680 | 351 |  | 2070 | 198 |
| TENKPATGGAPSQSG | 33300 | 20100 | 8300 | 301 | 1170 | 3910 | 443 | 1410 | 435 | 209 | 318 | 251 |
| EKKTATGEAPSPSGA | 10900 | 14600 | 9560 | 337 | 780 | 19000 | 288 | 688 | 153 |  | 185 | 690 |
| NKTAAGEAPSQPGAS | 6540 | 34500 | 42700 | 359 | 545 | 6540 | 510 | 1200 | 901 | 508 | 286 | 1010 |
| ENKPATGGAPSQPGA | 2390 | 15400 | 32100 | 372 | 900 | 4690 | 397 | 1060 | 338 | 236 | 313 | 372 |
| SGTDNKTATGEAPSQ | 13700 | 29300 | 41000 | 172 | 211 | 23500 | 179 | 532 | 1140 | 195 | 113 | 210 |
| KEKKTATGETPSPPG | 192 | 233 | 362 | 208 | 235 | 4160 | 204 | 134 | 106 | 86.8 | 103 | 494 |
| KDNKPATGGAPSQSG | 445 | 1320 | 2620 | 259 | 226 | 1400 | 337 | 682 | 353 |  | 147 | 147 |
